# Assay results reported in PubChem BioAssay AID1508623 (National Center for Advancing Translational Sciences (NCATS), 2021).
# Out of some 48,000 compounds screened, about 450 (0.94%) were called active. Inconclusive results (about 19%) are left out. Calls follow the shape of the dose curve; as a rule, active = well fitted inhibition curve with a large enough effect; inconclusive = small, poorly fitted or top-dose-only effect; inactive = no such curve, though single readings can be large or run the other way. The list shows a part of the results.
# Assay: Primary qHTS for Identification of Small Molecule Inhibitors of Huntingtin Promoter Activity; also: nearly all actives have a fitted effect of over 50% in size
# Details: HEK293 HTT promoter firefly luciferase reporter (activity 0% = vehicle and -100% = no light), 24 h; series mostly up to 57.5 µM; activity change, negative = inhibition: at the top concentration
# How it was run: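 Firefly luciferase readout (Dual-Glo, 10 min RT) after 24 h, 37 °C compound exposure (final up to 57.5 uM) of HEK293 reporter cells cultured 24 h beforehand; PTC124 at 50 uM final as control inhibitor; activity scaled vehicle 0%, zero RLU -100%.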
row,SMILES,"activity change, negative = inhibition"
1,COc1cccc(NC(=O)C2CCN(c3nnc(-n4c(C)ccc4C)s3)CC2)c1,inactive: -8.38%
2,c1ccc(OCc2ccc(CCCN3CCOCC3)cc2)cc1,inactive: -7.83%
3,O=c1cc(O)c(Cl)c[nH]1,inactive
4,Cc1ccc2ccc(Cl)cc2n1,inactive: 9.33%
5,CCN(CC)CCNC(=O)c1ccc2c(=O)n3nc(Nc4ccccc4)sc3nc2c1,inactive: -17.8%
6,CC1=C(C(=O)Nc2cccc(C(F)(F)F)c2)C2(CCN(C(C)C)CC2)OC1=O,inactive: 3.12%
7,COc1ccc(CNC(=O)CS(=O)(=O)c2cccc3nsnc23)cc1,inactive: -8.15%
8,Cc1ccc(OC(=O)CSc2nnc(-c3cccs3)o2)c(C)c1,inactive: 2.96%
9,CC1=C(C(=O)OC2CCCCCC2)C(c2ccc(Cl)cc2)CC(=O)N1 (stereo not given),inactive: -30%
10,O=C(c1ccc([N+](=O)[O-])cc1)N1c2ncnn2C2(CCCCC2)[C@@H]2CCCC[C@@H]21,inactive: -7.59%
11,Cc1ccc2nc(-c3ccco3)c(Nc3ccc4c(c3)OCCO4)n2c1,inactive: 13.4%
12,COc1ccc(Cn2c(CCC(=O)Nc3ccccc3OC)nc3cccnc32)cc1,inactive: -11.6%
13,CCc1c(C)nc2nc(-c3ccccc3)nn2c1NCc1ccc(C)cc1,inactive: -5.28%
14,CC(C)OCCCn1c(=O)c2ccccc2n2c(-c3ccccc3F)nnc12,inactive: -26.8%
15,Cc1oc2ccc(O)c(CN3CCCC(C)C3)c2c1C(=O)Nc1ccccc1 (stereo not given),inactive: -9.74%
16,COc1ccc2c(c1)c(=O)c(C(=O)c1ccc(Cl)cc1)cn2CC(=O)Nc1ccc2c(c1)OCCO2,inactive: -5.51%
17,O=C1CC2(CCCC2)CC(=O)N1CCCCN1CCN(c2ncccn2)CC1,inactive: -4.52%
18,Cc1ccc2nc(-c3c[nH]c4ccccc34)c(Nc3ccc(F)cc3)n2c1,inactive: 8.8%
19,Cc1ccc(CNC(=O)C(C)n2c(=O)cc(-c3ccccc3)c3c(C)nn(C)c32)cc1 (stereo not given),inactive: -18.1%
20,O=C(CCS(=O)(=O)c1cccc2nonc12)Nc1ccc(F)cc1F,inactive: -0.88%
21,Cc1oc(-c2ccccc2Cl)nc1CSc1nncn2c1cc1occc12,inactive: 9.35%
22,COc1ccc(Br)cc1CNC(=O)Cn1ncn2nc(-c3cccs3)cc2c1=O,inactive: 2.96%
23,Cc1ccc(-c2nnn3c2nc(NCc2ccc4c(c2)OCO4)c2ccccc23)cc1,inactive: -8.95%
24,COc1ccc2c(Sc3ccccc3)c(C(=O)NCc3cc(Br)ccc3OC)[nH]c2c1,inactive: -20.5%
25,CCCn1ccc2c(OCC(=O)Nc3ccc(OC)c(OC)c3)cccc2c1=O,inactive: -15.8%

row,SMILES,"activity change, negative = inhibition"
1,O=C(NOC[C@H](O)CO)c1ccc(F)c(F)c1Nc1ccc(I)cc1F,inactive: 4.64%
2,COc1ccccc1CNC(=O)c1ccc(CSc2nc3ccncc3n2Cc2cccc(F)c2)cc1,inactive: -29.9%
3,Cc1ccc(OCC(=O)Nc2nc(-c3ccc(Br)cc3)ns2)cc1,inactive: -6.32%
4,CCOc1ccccc1CNc1nc2nc(C)c(CC(=O)OC)c(=O)n2[nH]1,inactive: -15.7%
5,Cc1cccc(-c2nc(C)c(CCNC(=O)C(=O)Nc3ccc(C)c(C)c3)s2)c1,inactive: -8.09%
6,CN/C(=C\[N+](=O)[O-])NCCSCc1csc(CN(C)C)n1,inactive: 7.75%
7,O=C(CSc1nc(=O)[nH]c2c1CCC2)NCc1ccc(F)cc1,inactive: -12.9%
8,Cc1cc(C)c(/C=C2\C(=O)Nc3ccccc32)[nH]1,inactive: 7.32%
9,Cc1ccc(-n2ncc3c(N4CCN(Cc5ccccc5)CC4)ncnc32)cc1,inactive: -14.8%
10,Cc1ccccc1NC(=O)CSc1ccc(-c2ccccn2)nn1,inactive: 1.38%
11,COc1ccccc1-c1nn(CCC(=O)Nc2ccc(C)cc2)c2nc(C)cc(C)c12,inactive: -12.3%
12,CCN1CCN(CCCNC(=O)Cn2nc(C)n3c(cc4c(OC)cccc43)c2=O)CC1,inactive: 0.732%
13,CC1=C(C(N)=O)C(c2ccc(C)cc2)n2nc(SCc3ccccc3)nc2N1 (stereo not given),inactive: -12.3%
14,O=C(NCc1ccccc1Cl)C1=Cc2cc(Br)ccc2OC1,inactive: -12.2%
15,CCOC(=O)NNC(=O)C1CCC(C)CC1 (stereo not given),inactive: 1.74%
16,CC(C)Oc1ccc(CNC(=O)c2cnc3sc(N4CCCC4)nn3c2=O)cc1,inactive: 9.9%
17,Cc1oc2c(c1C(=O)NCc1ccccc1F)C1=NCCN1C=N2,inactive: -2.87%
18,O=C(NCC(c1ccc2c(c1)OCO2)N1CCN(c2ccccc2)CC1)C(=O)Nc1ccccc1F (stereo not given),inactive: -20.4%
19,CC(=O)Nc1cccc(-c2nnc(SCC(=O)c3cc([N+](=O)[O-])ccc3Cl)o2)c1,inactive: -32.1%
20,CCN(CC)C(=O)Cn1ncc2c([nH]c3ccccc32)c1=O,inactive: -0.847%
21,CCOC(=O)c1cnc2ccc(C(=O)OC)cc2c1Nc1ccc(OCc2ccccc2Cl)cc1,inactive: -16.3%
22,COc1ccc(C)cc1NC(=O)N(C(C)C)C1CCN(C(C)=O)CC1,inactive: 6.49%
23,Cc1ccc(-c2nnc3ccccc3c2C(=O)Nc2ccc(F)cc2)cc1,inactive: -13.5%
24,O=C(O)c1cc(-c2ccccc2)nn1Cc1ccccc1,inactive: 20.3%
25,Cc1ccc(N2CCN(c3nc4ccc(C(=O)c5ccccc5)cc4n4cnnc34)CC2)c(C)c1,inactive: -17.8%
